Measurements reported in PubChem BioAssay AID1476 (National Center for Advancing Translational Sciences (NCATS), 2009).
Among all 200,000 compounds or so, about 4,500 (2.2%) were called active. Inconclusive results, whose numbers are uncertain, are shown with a selection of clear calls. Calls come from the whole dose curve; as a rule, active = well fitted inhibition curve with a large enough effect; inconclusive = small, poorly fitted or top-dose-only effect, or effect the other way; inactive = flat fitted curve, though single readings scatter. Potencies of inconclusive entries are doubtful fits and often do not repeat.
Note: nearly all actives have a fitted effect of over 40% in size.
Potency is the fitted concentration of half-maximal effect; tags give direction and shape of the fitted curve.
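Throughout, for max response, negative = inhibition: plate controls were enzyme without inhibitor for no effect and buffer without enzyme for full effect.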

These compounds were tested against Cruzipain (Trypanosoma cruzi) (UniProt P25779) (assay: qHTS Assay for Promiscuous and Specific Inhibitors of Cruzain (without detergent)). Settings: purified cruzain, Z-FR-AMC fluorescence, no detergent.
UniProt P25779, sequence (P25779 whole entry, looked up): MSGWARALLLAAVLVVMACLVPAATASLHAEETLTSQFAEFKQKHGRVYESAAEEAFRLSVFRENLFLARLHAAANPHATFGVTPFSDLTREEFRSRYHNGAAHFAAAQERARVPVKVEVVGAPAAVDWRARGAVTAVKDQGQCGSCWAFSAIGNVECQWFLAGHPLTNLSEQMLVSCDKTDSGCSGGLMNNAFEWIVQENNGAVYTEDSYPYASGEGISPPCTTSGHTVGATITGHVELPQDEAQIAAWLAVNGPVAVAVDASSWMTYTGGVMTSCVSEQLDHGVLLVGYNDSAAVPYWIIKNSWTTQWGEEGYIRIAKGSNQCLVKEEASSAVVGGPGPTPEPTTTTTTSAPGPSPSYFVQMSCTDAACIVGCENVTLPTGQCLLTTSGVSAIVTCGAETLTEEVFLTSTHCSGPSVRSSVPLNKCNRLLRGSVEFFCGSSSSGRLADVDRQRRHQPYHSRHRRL
Method in brief: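 Purified cruzain at 1.5 nM, pre-incubated 15 min with compound at room temperature in 100 mM sodium acetate pH 5.5, 5 mM DTT, 0.00005% Triton X-100. Reaction started with 2 uM Z-FR-AMC; AMC fluorescence increase over 60 s gives rate.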
`CCc1ccc(-c2cc(-c3n[nH]c(=S)n3CC)c3ccccc3n2)cc1` was tested, and the Potency was active: 15.8 µM. `CCC(=O)N1CCc2cc(S(=O)(=O)NC(C(=O)NCCc3ccc(C)cc3)C(C)C)ccc21` (stereo unspecified) was tested, and the max response, negative = inhibition was inactive: -12.9%. For `CCN(CC)S(=O)(=O)c1ccc(-c2nnc(SCC(C)=O)o2)cc1`, the max response, negative = inhibition was inactive: 8.28%. For `CCOC(=O)c1oc2ccc(S(=O)(=O)n3nc(-c4ccccc4)cc3N)cc2c1C`, the Potency was inconclusive: 39.8 µM [inhibitor, single point]. In the case of `CCN1CCN(Cc2coc3ccc(C)cc3c2=O)CC1`, the Potency is reported as inconclusive: 39.8 µM [activator, single point]. With `CCOc1ccc(S(=O)(=O)N2CCN(c3ccc(C)cc3C)CC2)c2ccccc12` the Potency was active: 3.16 µM. `COc1cccc(CSc2nc(-c3ccccc3OC)nc3c2Cc2c(CO)cnc(C)c2O3)c1` was tested, and the Potency was inconclusive: 25.1 µM [activator, single point]. With `Cc1cc(C)cc(NC(=O)c2ccc(Cn3nc(C)c(Cl)c3C)o2)c1` the Potency was inconclusive: 39.8 µM [activator, single point]. For `O=C(Cc1c(Cl)cccc1Cl)NCCc1ccc(Cl)cc1`, the Potency was inconclusive: 39.8 µM [inhibitor, single point]. In the case of `CCC(C)n1cnc2c(c1=O)c1nc3ccccc3nc1n2Cc1ccc2c(c1)OCO2` (stereo unspecified), the Potency is reported as inconclusive: 39.8 µM [activator, single point]. With `Cc1ccc(C)c(N2CCN(C(=O)C3CCCN(S(=O)(=O)c4cnc[nH]4)C3)CC2)c1` (stereo unspecified) the Potency was inconclusive: 39.8 µM [activator, single point]. With `O=C(COC(=O)c1cc(-c2cccs2)nn1-c1ccccc1)Nc1ccc(Cl)c([N+](=O)[O-])c1` the Potency was inconclusive: 20 µM [inhibitor, single point]. `Cc1ccc(O)c(C(=O)c2cc(C#N)c(=O)n(CC3CCCO3)c2)c1` (stereo unspecified) was tested, and the max response, negative = inhibition was inactive: -17.7%. With `COc1cccc(-n2nnnc2SCC(=O)Nc2nc3c(s2)CCCC3)c1` the Potency was active: 25.1 µM. In the case of `O=C(c1cc(C(=O)NCc2ccc(Cl)cc2)c(=O)n(Cc2ccc(Cl)cc2)c1)c1cc(F)ccc1O`, the Potency is reported as active: 15.8 µM. For `N#CC1=C(N)n2c(s/c(=C\c3cccs3)c2=O)=C(C#N)C1c1cccs1` (stereo unspecified), the Potency was active: 25.1 µM. For `O=C(NCc1ccc(F)cc1)c1ccc(N2CCc3ccccc32)c([N+](=O)[O-])c1`, the Potency was inconclusive: 31.6 µM [inhibitor, single point]. With `O=C(C1CCCN(S(=O)(=O)c2cccs2)C1)N1CCC(N2CCCCC2)CC1` (stereo unspecified) the Potency was inconclusive: 1.58 µM [inhibitor, single point]. For `CCOc1ccc(-c2nnn(CC(=O)Nc3cccc(OC)c3)n2)cc1OCC`, the Potency was inconclusive: 25.1 µM [activator, single point]. `N#CC1=C(N)Oc2n[nH]c(-c3ccccn3)c2C1c1c(F)cccc1Cl` (stereo unspecified) was tested, and the Potency was inconclusive: 39.8 µM [inhibitor, single point]. With `CCCSc1ccc(-c2nn(-c3ccccc3)cc2/C=C(/C#N)C(=O)N2CCOCC2)cc1` the Potency was inconclusive: 12.6 µM [activator, partial curve]. In the case of `CCCN(C(=O)c1cn(CC(C)C)c(=O)c2cc(OC)c(OC)cc12)c1cccc(C)c1`, the Potency is reported as inconclusive: 15.8 µM [activator, partial curve]. With `O=C(Nc1ccc(S(=O)(=O)N2CCc3ccccc3C2)cc1)c1ccccc1` the Potency was inconclusive: 39.8 µM [inhibitor, single point]. In the case of `CCOC(=O)Cc1c(C)nc2c(-c3cccc(Br)c3)cnn2c1C`, the Potency is reported as inconclusive: 20 µM [activator, partial curve]. `CCOc1cc(-c2nnc(SCC(=O)NCCCOC)nc2-c2ccc(OC)c(OCC)c2)ccc1OC` was tested, and the Potency was inconclusive: 25.1 µM [activator, single point]. In the case of `Cn1cc(S(=O)(=O)N2CCCCC2)cc1C(=O)NCc1ccc(Cl)cc1`, the Potency is reported as inconclusive: 10 µM [inhibitor, partial curve, poor fit]. `COC(=O)c1cc2oc3ccccc3c2n1CC(=O)Nc1ccc(N(C)C)cc1` was tested, and the max response, negative = inhibition was inactive: -6.21%. With `CCOc1ccc(N2C(=O)CS/C2=N/NC(=O)COc2ccc3ccccc3c2)cc1` the Potency was inconclusive: 31.6 µM [activator, single point]. `CC(=O)C1=C(C)NC(SCc2cccc3ccccc23)=C(C#N)C1c1ccco1` (stereo unspecified) was tested, and the Potency was inconclusive: 39.8 µM [inhibitor, single point]. In the case of `CCC(=O)N1c2ccc(S(=O)(=O)N3CCCCCC3)cc2CC1C` (stereo unspecified), the max response, negative = inhibition is reported as inactive: -0.786%. In the case of `Cc1nccn1-c1cc(C(C)(C)C)nc2c(-c3ccccc3)cnn12`, the Potency is reported as inconclusive: 39.8 µM [activator, single point]. For `CCOC(=O)c1cnn(-c2nc(SC)nc3sc4c(c23)CCC4)c1N`, the Potency was active: 7.94 µM. In the case of `CCOC(=O)c1ccc(NC(=O)CN(c2ccc(C)cc2)S(=O)(=O)c2c(C)nn(C)c2C)cc1`, the Potency is reported as inconclusive: 31.6 µM [activator, single point]. For `COC(=O)c1cc(Br)ccc1-c1ccc(/C=N/n2nnnc2N)o1`, the Potency was active: 12.6 µM. In the case of `Cc1cccc(NC(=O)CSc2nc3ccc(NC(=O)CSc4nnnn4-c4ccccc4)cc3s2)c1C`, the Potency is reported as inconclusive: 5.01 µM [inhibitor, full curve]. `CC(C)Oc1cccc(C(=O)Nc2ccc3oc(-c4ccccc4)nc3c2)c1` was tested, and the max response, negative = inhibition was inactive: -12.3%. In the case of `CCOc1ccc(C(NC(=O)c2cc(OC)c(OC)c(OC)c2)c2cc(Cl)c3cccnc3c2O)cc1` (stereo unspecified), the Potency is reported as inconclusive: 1.58 µM [activator, full curve]. `COc1ccc2[nH]cc(CCNc3ncncc3-c3ccc4c(c3)OCO4)c2c1` was tested, and the max response, negative = inhibition was inactive: -4.56%. With `Cc1ccsc1C(=O)c1sccc1C` the Potency was inconclusive: 1.26 µM [inhibitor, single point]. With `COc1ccc(Cn2c(C)c(C)c(C#N)c2NC(=O)Nc2cccc(Cl)c2)cc1` the Potency was inconclusive: 39.8 µM [inhibitor, single point]. `Cn1c(C(=O)N2CCN(c3cccc(C(F)(F)F)c3)CC2)cc2sccc21` was tested, and the Potency was inconclusive: 25.1 µM [activator, single point].
